In all, about 350,000 compounds went through this assay and about 700 (0.2%) were called active. The call rests on the fitted dose curve; in most records, active means well fitted inhibition curve with a large enough effect; inconclusive means small, poorly fitted or top-dose-only effect; inactive means flat fitted curve, though single readings scatter. Inconclusive means that the source gave no clear call. No potency is given beside an inconclusive call; the fits are too rough.
Target: RecQ-like DNA helicase BLM (Homo sapiens) (UniProt P54132)
Test: qHTS Assay for Inhibitors of Bloom's syndrome helicase (BLM); further: nearly all actives have a fitted effect of over 35% in size
Conditions: recombinant BLM DNA unwinding, fluorescence dequenching; series mostly up to 56.1 µM
Excerpt: Survival of cells and the faithful propagation of the genome depend on elaborate mechanisms of detecting and repairing DNA damage. Treatment of advanced cancer relies on radiation therapy or chemotherapy, which kill cancer cells by causing extensive DNA damage. It is often found, that cancer cells develop resistance to therapy through enhanced activity of DNA repair functions; this has led to an increased interest in developing drugs that interfere with DNA repair, which could sensitize cancer cells to conventional therapy.
This validation qHTS assay pertains to human BLM, which is important in resolving abnormal DNA structures formed during replication or homologous recombination. Shutting down the expression of BLM leads to chromosomal instability and higher radiation sensitivity in cultured cells.
The validation assay was a fluorescence quenching based kinetic qHTS for BLM Helicase DNA unwinding. The activity was measured as ATP-dependent separation of a 20-bp DNA duplex extended by 30-nt single-stranded tails (forked duplex). The forked DNA substrate was tagged with rhodamine fluorophore (carboxytetramethyl rhodamine, TAMRA) and BHQ-2 (Black Hole Quencher 2) dark quencher. Strand separation results in an increase in the fluorescence of TAMRA (excitation 525 nm, emission 598 nm). […]
Potency means the concentration at half of the fitted maximal effect; tags describe the fitted curve by direction and shape.

Sequence of UniProt P54132 (P54132 whole entry, looked up): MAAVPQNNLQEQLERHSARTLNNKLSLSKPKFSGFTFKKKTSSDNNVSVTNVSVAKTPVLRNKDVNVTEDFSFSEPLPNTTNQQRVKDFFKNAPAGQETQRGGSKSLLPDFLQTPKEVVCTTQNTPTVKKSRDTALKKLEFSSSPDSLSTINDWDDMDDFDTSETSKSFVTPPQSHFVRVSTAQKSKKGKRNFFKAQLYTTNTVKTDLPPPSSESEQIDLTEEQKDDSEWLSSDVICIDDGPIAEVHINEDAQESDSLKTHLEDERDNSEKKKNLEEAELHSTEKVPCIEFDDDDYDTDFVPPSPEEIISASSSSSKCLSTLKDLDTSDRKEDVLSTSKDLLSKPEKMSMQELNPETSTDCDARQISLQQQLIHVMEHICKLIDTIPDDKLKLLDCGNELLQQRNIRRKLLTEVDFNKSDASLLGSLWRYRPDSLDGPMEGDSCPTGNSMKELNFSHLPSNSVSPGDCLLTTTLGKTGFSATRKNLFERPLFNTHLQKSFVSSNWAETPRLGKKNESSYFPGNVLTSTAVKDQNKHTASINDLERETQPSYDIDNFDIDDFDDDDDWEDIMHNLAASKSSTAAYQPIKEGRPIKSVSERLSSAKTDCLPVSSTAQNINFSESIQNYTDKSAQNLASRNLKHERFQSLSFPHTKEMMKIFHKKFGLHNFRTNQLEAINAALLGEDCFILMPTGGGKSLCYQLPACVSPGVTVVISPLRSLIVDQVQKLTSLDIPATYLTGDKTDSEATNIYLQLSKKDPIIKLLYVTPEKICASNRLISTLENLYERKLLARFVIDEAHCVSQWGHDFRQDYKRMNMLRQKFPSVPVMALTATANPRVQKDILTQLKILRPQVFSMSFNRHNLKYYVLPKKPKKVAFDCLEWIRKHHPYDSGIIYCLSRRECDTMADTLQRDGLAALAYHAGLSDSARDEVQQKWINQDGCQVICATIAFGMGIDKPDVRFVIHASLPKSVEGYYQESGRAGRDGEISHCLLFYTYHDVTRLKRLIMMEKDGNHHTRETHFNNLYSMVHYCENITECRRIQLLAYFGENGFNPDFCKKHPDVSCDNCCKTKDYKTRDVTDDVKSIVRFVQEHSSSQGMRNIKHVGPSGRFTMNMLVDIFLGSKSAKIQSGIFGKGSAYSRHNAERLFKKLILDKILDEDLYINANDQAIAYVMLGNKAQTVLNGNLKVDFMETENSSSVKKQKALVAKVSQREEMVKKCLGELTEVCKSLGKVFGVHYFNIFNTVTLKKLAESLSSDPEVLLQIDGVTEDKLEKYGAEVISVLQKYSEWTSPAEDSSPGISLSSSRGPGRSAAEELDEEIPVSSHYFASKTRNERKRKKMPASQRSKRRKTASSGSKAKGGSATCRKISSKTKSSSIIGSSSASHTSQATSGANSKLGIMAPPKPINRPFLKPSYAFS

Row | Compound | Potency
1 | Cc1c(CC(=O)O)c(=O)oc2c(C)c3occ(-c4ccc(Br)cc4)c3cc12 | inconclusive [inhibitor, partial curve]

Source: PubChem BioAssay AID2528 (National Center for Advancing Translational Sciences (NCATS), 2010)
